The full ranking holds about 33,000 sequences; the median of “E-score (-0.5 to 0.5)” is about -0.013, and the highest 2% start at about 0.3. This is one part of the list.
The sequences below were run against T1, Msn1 (UniProt P22148) (assay: PBM E-score (8-mer binding enrichment) (E-score (-0.5 to 0.5)); higher = stronger / more preferred TF binding; most listed sequences are background and not binding sites). Conditions: protein concentration: 200 nM; construct: GST-full length.
T1 sequence: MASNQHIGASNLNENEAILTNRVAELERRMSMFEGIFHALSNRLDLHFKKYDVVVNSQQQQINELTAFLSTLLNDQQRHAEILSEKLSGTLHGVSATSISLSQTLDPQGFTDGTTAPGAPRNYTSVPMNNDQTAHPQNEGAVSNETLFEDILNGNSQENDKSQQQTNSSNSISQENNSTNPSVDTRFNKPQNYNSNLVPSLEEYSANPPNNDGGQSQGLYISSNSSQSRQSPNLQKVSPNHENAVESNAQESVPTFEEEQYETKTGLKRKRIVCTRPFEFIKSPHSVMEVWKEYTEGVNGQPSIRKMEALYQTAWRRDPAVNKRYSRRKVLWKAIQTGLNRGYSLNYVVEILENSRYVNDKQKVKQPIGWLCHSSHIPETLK
Procedure, shortened: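 For each ungapped eight-base word taken together with its reverse complement, the Universal PBM Analysis Suite assigned an E-score. Binding data came from GST-tagged yeast transcription factors, applied at about 100-200 nM, on universal all-10-mer Agilent arrays made double-stranded by primer extension. Fluorescent anti-GST marked bound protein, and scans were normalised with masliner.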

| Sequence | PBM E-score |
| --- | --- |
| CACTCCGA | -0.0486 |
| TCCATGCA | -0.00339 |
| TCATTAAA | 0.251 |
| CTTACGTC | -0.0829 |
| AAAGGTCG | -0.0994 |
| TCTTAAAA | 0.199 |
| GTTATGGA | 0.136 |
| CTTAGTAA | 0.16 |
| ACGAAGGA | -0.0295 |
| ACTGTAGG | 0.0398 |
| AGCTGTAT | -0.0176 |
| GGACGCGA | 0.0612 |
| TAGCAACA | 0.0526 |
| CCGCTAGC | -0.292 |
| ACCTTACC | 0.0657 |
| GAATAGCC | -0.116 |
| GAAGGACC | -0.139 |
| ACGGCGTG | -0.0469 |
| AGTGGTTG | 0.102 |
| CGAGTTTC | -0.0216 |
| AATAGGCA | -0.0523 |
| GAGGCTAC | -0.23 |
| ATGAACAA | 9e-05 |
| AACAGCGA | -0.216 |
| AGTGCTTG | -0.0627 |

| Sequence | PBM E-score |
| --- | --- |
| CGAATGTC | 0.386 |
| ATTTGCCG | 0.136 |
| AACATACG | 0.0695 |
| CTCTCCTA | -0.316 |
| ACCAATAG | -0.0153 |
| CCTCTGCC | -0.177 |
| AAGCACCA | -0.0725 |
| AATGCCCG | -0.182 |
| CATGGCTC | -0.0129 |
| GGTCAAAA | 0.135 |
| CCCAGGGC | -0.41 |
| CATGTGAA | -0.0733 |
| CCAATGTC | 0.328 |
| ACCGGACC | 0.025 |
| GGGCCAAC | -0.0687 |
| CTTTGGCA | -0.261 |
| AAAAGGAA | 0.123 |
| AACAGGAT | -0.0582 |
| CTACCTAA | 0.0698 |
| GGAATGTA | 0.0976 |
| GACTCTGC | -0.155 |
| AAAACTAC | 0.21 |
| AGCTGGAC | 0.135 |
| ACCGACCT | -0.0954 |
| CTCCACGC | -0.162 |

| Sequence | PBM E-score |
| --- | --- |
| CCCTAGTA | -0.0771 |
| AGGGTGGC | -0.0215 |
| CGCTCGAG | 0.195 |
| GCGTCCCC | -0.251 |
| CATGGTGA | -0.0652 |
| ACTCGCCT | -0.0305 |
| GACTGAGA | 0.092 |
| CTACTCCA | -0.234 |
| GCTACTTA | -0.258 |
| ATGGCGTA | 0.0141 |
| ACTAACGG | -0.0137 |
| GATAACAA | -0.0321 |
| GATGGCCC | -0.219 |
| GAAGACTA | -0.0534 |
| CTCGCAGC | -0.0721 |
| CGACATAA | 0.286 |
| GAAGTTGC | -0.15 |
| ACCGATGG | 0.00303 |
| AGCTATAC | -0.234 |
| ACGTGTTG | 0.0865 |
| CGTCCCAG | 0.0129 |
| GTAGGCCA | 0.0336 |
| CAGTGGCG | -0.231 |
| AGATGCTC | -0.2 |
| AGGTACTC | -0.0571 |

| Sequence | PBM E-score |
| --- | --- |
| CGCATGCC | 0.00255 |
| CACGATCA | 0.0233 |
| ACCTGCGG | 0.0291 |
| ATGGCTCA | -0.00052 |
| AGCTGAAA | 0.117 |
| AGACCTCA | -0.119 |
| AACCTGAC | 0.00442 |
| AGGACTCA | -0.0648 |
| GACGACTC | -0.147 |
| CCCAACGA | -0.0672 |
| ACCTTAGT | -0.0276 |
| CCAACGCA | -0.108 |
| TAAGCAGA | -0.138 |
| AGTCGGCG | 0.0577 |
| GAAGTTTA | 0.126 |
| ACTCGTGC | -0.214 |
| GAGGGATC | -0.309 |
| ACCTAATA | 0.194 |
| ATCCTAAA | -0.0285 |
| GGACATGA | 0.467 |
| GCAAGTCA | -0.00666 |
| ACTGACAA | 0.249 |
| ACAACTAA | 0.167 |
| CCAGAAGG | -0.103 |
| GTGCTTAA | -0.00137 |

| Sequence | PBM E-score |
| --- | --- |
| TAGGATAA | 0.0132 |
| CGCTAACC | -0.084 |
| ATCGTCAC | 0.0421 |
| GACCTCCC | -0.214 |
| ACATTTTC | 0.337 |
| TCGGGGCA | -0.104 |
| TCATCGGA | 0.0601 |
| ACACGATG | 0.079 |
| AGGAAGAC | 0.0382 |
| GCATTAAC | 0.0679 |
| ACGCCTCA | -0.172 |
| ATCGGCGC | 0.154 |
| GGTATAAC | -0.0602 |
| AAATAAGG | 0.0407 |
| AGCTCCAC | -0.149 |
| CACCAGAG | -0.232 |
| TAGCGACA | 0.24 |
| GCGCCCGA | -0.0361 |
| AGTTTTAG | 0.0289 |
| GTTACTTA | 0.19 |
| AAGACGCA | 0.0389 |
| AACCTAAT | -0.119 |
| AAGCCAGA | 0.00654 |
| AATATGAA | 0.0746 |
| CTGCCTGA | 0.118 |

| Sequence | PBM E-score |
| --- | --- |
| ACTACCGA | -0.142 |
| ATTCCGCG | 0.104 |
| GTATCGGA | 0.055 |
| ACACGAAT | 0.167 |
| CAGCTCGG | -0.0812 |
| GTAGAATA | 0.0609 |
| GGACGCAC | 0.0505 |
| CTAGCAAC | 0.0611 |
| ACGTGACG | 0.0441 |
| TCCACGCA | -0.0945 |
| ATCACAAT | -0.035 |
| CACGGAAA | 0.151 |
| TAGATGGA | -0.11 |
| GAGTCCGC | -0.271 |
| CCACAGCC | -0.0205 |
| CCCAGTCC | -0.156 |
| CCCACTGA | -0.0422 |
| ACGGACAT | 0.473 |
| AGCAGACA | 0.0142 |
| CACAAAGG | -0.115 |
| GGGTGTAA | -0.0483 |
| AATTCAAA | 0.128 |
| ACCAAGGG | -0.0635 |
| ATAGTCAA | 0.0132 |
| AGGGTGCC | -0.261 |

| Sequence | PBM E-score |
| --- | --- |
| GGTCGCGA | 0.125 |
| CTCCAGAG | -0.216 |
| GTGACATA | 0.328 |
| AGGACTGG | -0.0567 |
| CCTCCTAG | -0.0539 |
| ACCTCCTC | -0.203 |
| CTTGTGTA | 0.114 |
| CCGAAAGA | 0.094 |
| CGCATCGC | -0.189 |
| CCCTTCTC | -0.359 |
| GAATCTCC | -0.102 |
| CACCGGTG | 0.064 |
| CGACGGAG | 0.0293 |
| ATTGATGG | 0.177 |
| CCGTTCAC | -0.0653 |
| GAAGGTCA | -0.119 |
| CCTACGAA | -0.0639 |
| ATCGTCGC | 0.0649 |
| CAGCGCGG | -0.135 |
| ATCCTCCG | -0.00807 |
| GACAATAA | 0.294 |
| CTAGTAAC | -0.145 |

From the supplement of paper PMC3334620
